From US12583836B2 (Anaxis Pharma Pty Ltd, priority 2020, dated 2026)

How the values were obtained:
RIP1 = target: T1, RIP1 (Homo sapiens, UniProt Q13546); experiment: KINOMEscan binding assay, RIP1; conditions: equilibrium dissociation constant, class symbols
T1 construct: purchased DiscoverX (KINOMEscan service); host or cells: E. coli BL21-derived (T7 phage) or HEK293
T1 sequence (Q13546 1-671): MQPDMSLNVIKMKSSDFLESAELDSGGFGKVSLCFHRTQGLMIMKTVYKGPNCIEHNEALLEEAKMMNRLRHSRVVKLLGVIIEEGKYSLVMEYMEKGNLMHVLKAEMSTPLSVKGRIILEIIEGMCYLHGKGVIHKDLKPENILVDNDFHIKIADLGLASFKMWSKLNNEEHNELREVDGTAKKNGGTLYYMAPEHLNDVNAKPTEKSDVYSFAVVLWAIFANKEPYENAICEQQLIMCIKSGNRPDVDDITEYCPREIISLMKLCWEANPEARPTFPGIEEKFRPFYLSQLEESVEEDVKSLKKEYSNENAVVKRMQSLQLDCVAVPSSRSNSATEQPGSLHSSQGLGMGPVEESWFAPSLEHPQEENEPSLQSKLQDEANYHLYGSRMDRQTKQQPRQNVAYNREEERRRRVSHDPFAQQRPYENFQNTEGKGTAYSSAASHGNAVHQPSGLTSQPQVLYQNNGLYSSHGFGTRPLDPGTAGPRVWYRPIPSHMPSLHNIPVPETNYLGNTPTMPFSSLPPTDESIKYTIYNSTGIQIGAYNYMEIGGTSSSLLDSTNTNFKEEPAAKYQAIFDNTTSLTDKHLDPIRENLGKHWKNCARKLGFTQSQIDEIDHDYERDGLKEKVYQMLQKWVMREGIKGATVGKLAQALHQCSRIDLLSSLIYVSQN

RIP3 = target: T2, RIP3 (Homo sapiens, UniProt Q9Y572); experiment: KINOMEscan binding assay, RIP3; conditions: equilibrium dissociation constant, class symbols
T2 construct: purchased DiscoverX (KINOMEscan service); host or cells: E. coli BL21-derived (T7 phage) or HEK293
T2 sequence (Q9Y572 whole entry): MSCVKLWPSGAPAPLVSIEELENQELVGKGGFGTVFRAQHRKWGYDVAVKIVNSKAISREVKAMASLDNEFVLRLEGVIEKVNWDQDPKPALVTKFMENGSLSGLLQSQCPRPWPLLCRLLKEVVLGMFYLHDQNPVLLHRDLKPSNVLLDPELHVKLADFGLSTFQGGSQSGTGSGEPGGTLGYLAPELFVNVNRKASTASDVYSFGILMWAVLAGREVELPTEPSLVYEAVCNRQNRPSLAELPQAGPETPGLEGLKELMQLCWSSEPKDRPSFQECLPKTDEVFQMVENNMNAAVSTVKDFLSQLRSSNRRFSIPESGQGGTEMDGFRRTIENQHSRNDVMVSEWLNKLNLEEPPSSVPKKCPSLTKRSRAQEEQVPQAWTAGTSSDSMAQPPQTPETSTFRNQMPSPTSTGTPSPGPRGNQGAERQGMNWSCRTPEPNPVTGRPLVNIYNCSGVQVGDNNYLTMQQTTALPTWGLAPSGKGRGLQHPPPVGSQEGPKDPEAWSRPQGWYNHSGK
Source text: The Hill Slope was set to −1.

[1] = tested on: U937 human histiocytic leukemia cell line; experiment: Inhibition of TSQ induced necroptosis, 384 well plate format (CellTitre-Glo); conditions: Homo sapiens, U-937; U937 cells, TSQ cocktail (TNF, Smac mimetic, Q-VD-OPh), CelltiterGlo; read-out: Inhibition of TSQ-induced necroptosis (IC50 cell-based assay)
In short: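 IC50 is the inflection point of 4-parameter logistic curves of percent viability, measured as ATP by CellTiter-Glo after 48 h at 37 °C. Cells were U937 at 20,000 per well, given TNF-Fc (100 ng/ml)/Smac mimetic (500 nM)/Q-VD-OPh (10 μM). Compound was tested at 36 μM down in ten 3-fold steps, 0.3% DMSO.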

U937 cells = experiment: Counter screen: cell viability without the TSQ cocktail (CelltiterGlo); design: species or system human; conditions: Homo sapiens, U-937, cell viability by CelltiterGlo, read-out: Off-target effect (IC50 cell-based assay)
Experimental: Counter screen: In parallel, all compounds were tested for their ability to affect cell viability. The same U937 cells were treated with compound in DMSO without the TSQ cocktail. This counter screen enabled evaluation of off-target effects. In this case, cell viability was measured by CelltiterGlo.

SMILES	Kd (RIP1)	Kd (RIP3)	IC50 [1]	IC50 (U937 cells)
CCS(=O)(=O)Nc1ccc(-c2n[nH]c(Nc3cnccn3)c2C(N)=O)c(OCc2ccc(F)cc2)c1 [Compound 21, 3-(4-(ethylsulfonamido)-2-((4-fluorobenzyl)oxy)phenyl)-5-(pyrazin-2-ylamino)-1H-pyrazole-4-carboxamide]	> 30 µM	> 30 µM	1 to 30 µM	> 30 µM
NC(=O)c1c(-c2ccc(NS(=O)(=O)C(F)F)cc2)n[nH]c1Nc1cnccn1 [Compound 63, 3-(4-((difluoromethyl)sulfonamido)phenyl)-5-(pyrazin-2-ylamino)-1H-pyrazole-4-carboxamide]	> 30 µM	> 30 µM	1 to 30 µM	> 30 µM
NC(=O)c1c(-c2ccc(NS(=O)(=O)CC(F)(F)F)c(OCc3ccc(Cl)cn3)c2)n[nH]c1Nc1cnccn1 [Compound 262, 3-{3-[(5-chloropyridin-2-yl)methoxy]-4-(2,2,2-trifluoroethane-sulfonamido)phenyl}-5-[(pyrazin-2-yl)amino]-1H-pyrazole-4-carboxamide]	> 30 µM	> 30 µM	0.01 to 1 µM	> 30 µM
CCS(=O)(=O)Nc1ccc(-c2n[nH]c(Nc3cnc(OC)cn3)c2C(N)=O)cc1OCc1ccc(F)cc1 [Compound 14, 3-(4-(ethylsulfonamido)-3-((4-fluorobenzyl)oxy)phenyl) 5-((5-methoxypyrazin-2-yl)amino)-1H-pyrazole-4 carboxamide]	> 30 µM	> 30 µM	0.01 to 1 µM	> 30 µM
CCS(=O)(=O)Nc1ccc(-c2n[nH]c(Nc3cnccn3)c2C(N)=O)cc1OCc1ccc(F)cc1C [Compound 171, 3-(4-(ethylsulfonamido)-3-((4-fluoro-2-methylbenzyl)oxy)phenyl)-5-(pyrazin-2-ylamino)-1H-pyrazole-4-carboxamide]	> 30 µM	> 30 µM	0.01 to 1 µM	> 30 µM
CCS(=O)(=O)Nc1ccc(-c2n[nH]c(Nc3cnccn3)c2C(N)=O)cc1OC1(c2ccccc2)CC1 [Compound 152, 3-(4-(ethylsulfonamido)-3-(1-phenylcyclopropoxy)phenyl)-5-(pyrazin-2-ylamino)-1H-pyrazole-4-carboxamide]	> 30 µM	> 30 µM	0.01 to 1 µM	> 30 µM
CCS(=O)(=O)Nc1ccc(-c2n[nH]c(Nc3cnccn3)c2C(N)=O)cc1OCc1cccc(Cl)c1 [Compound 41, 3-(3-((3-chlorobenzyl)oxy)-4-(ethylsulfonamido)phenyl)-5-(pyrazin-2-ylamino)-1H-pyrazole-4-carboxamide]	> 30 µM	> 30 µM	1 to 30 µM	> 30 µM
CC(C)S(=O)(=O)Nc1ccc(-c2n[nH]c(Nc3cnccn3)c2C(N)=O)cc1 [Compound 71, 3-(4-((1-methylethyl)sulfonamido)phenyl)-5-(pyrazin-2-ylamino)-1H-pyrazole-4-carboxamide]	> 30 µM	1 to 30 µM	1 to 30 µM	> 30 µM
CCS(=O)(=O)Nc1ccc(-c2n[nH]c(Nc3cccc(OCCOC)n3)c2C(N)=O)cc1 [Compound 128, 3-(4-(ethylsulfonamido)phenyl)-5-((6-(2-methoxyethoxy)pyridin-2-yl)amino)-1H-pyrazole-4-carboxamide]	> 30 µM	1 to 30 µM	1 to 30 µM	> 30 µM
NC(=O)c1c(-c2ccc(NS(=O)(=O)CC(F)(F)F)c(OC3(c4ccc(F)cc4)CC3)c2)n[nH]c1Nc1cnccn1 [Compound 144, 3-(3-(1-(4-fluorophenyl)cyclopropoxy)-4-((2,2,2-trifluoroethyl)sulfonamido)phenyl)-5-(pyrazin-2-ylamino)-1H-pyrazole-4-carboxamide]	> 30 µM	> 30 µM	0.01 to 1 µM	> 30 µM
NC(=O)c1c(-c2ccc(NS(=O)(=O)CC(F)(F)F)cc2OCc2ccc(F)cc2)n[nH]c1Nc1cccc(C(F)(F)F)n1 [Compound 140, 3-(2-((4-fluorobenzyl)oxy)-4-((2,2,2-trifluoroethyl)sulfonamido)phenyl)-5-((6-(trifluoromethyl)pyridine-2-yl)amino)-1H-pyrazole-4-carboxamide]	> 30 µM	> 30 µM	0.01 to 1 µM	1 to 30 µM
CCS(=O)(=O)Nc1ccc(-c2n[nH]c(Nc3ccc(C#N)cc3)c2C(N)=O)cc1 [Compound 102, 5-((4-cyanophenyl)amino)-3-(4-(ethylsulfonamido)phenyl)-1H-pyrazole-4-carboxamide]	> 30 µM	> 30 µM	1 to 30 µM	> 30 µM

Second part, led by results:

Kd (RIP1)	Kd (RIP3)	SMILES	IC50 [1]	IC50 (U937 cells)
> 30 µM	> 30 µM	C[C@H](Oc1cc(-c2n[nH]c(Nc3cnccn3)c2C(N)=O)ccc1NS(=O)(=O)CC(F)(F)F)c1ccc(F)cc1 [Compound 164, (S)-3-(3-(1-(4-fluorophenyl)ethoxy)-4-((2,2,2-trifluoroethyl)sulfonamido)phenyl)-5-(pyrazin-2-ylamino)-1H-pyrazole-4-carboxamide]	< 0.01 µM	> 30 µM
> 30 µM	> 30 µM	C[C@H](Oc1cc(-c2n[nH]c(Nc3cnn(C4CCOCC4)c3)c2C(N)=O)ccc1NS(=O)(=O)C(F)F)c1ccc(F)cc1 [Compound 306, (S)-3-(4-((difluoromethyl)sulfonamido)-3-(1-(4-fluorophenyl)ethoxy)phenyl)-5-((1-(tetrahydro-2H-pyran-4-yl)-1H-pyrazol-4-yl)amino)-1H-pyrazole-4-carboxamide]	0.01 to 1 µM	> 30 µM
> 30 µM	> 30 µM	COC[C@@H](Cc1cc(-c2n[nH]c(Nc3cnccn3)c2C(N)=O)ccc1NS(=O)(=O)C(F)F)c1ccc(F)cc1 (single isomer, unassigned) [Compound 273]	0.01 to 1 µM	> 30 µM
> 30 µM	> 30 µM	Cc1cnc(Nc2[nH]nc(-c3ccc(NS(=O)(=O)C(F)F)c(OCc4ccc(F)c(F)c4)c3)c2C(N)=O)cn1 [Compound 291, 3-(3-((3,4-difluorobenzyl)oxy)-4-((difluoromethyl)sulfonamido)phenyl)-5-((5-methylpyrazin-2-yl)amino)-1H-pyrazole-4-carboxamide]	< 0.01 µM	1 to 30 µM
> 30 µM	> 30 µM	C[C@H](Oc1cc(-c2n[nH]c(Nc3cccc(C(F)(F)F)n3)c2C(N)=O)ccc1NS(=O)(=O)C(F)F)c1ccc(F)cc1 [Compound 229, 3-[4-(difluoromethanesulfonamido)-3-[(1S)-1-(4-fluorophenyl)ethoxy]phenyl]-5-{[6-(trifluoromethyl)pyridin-2-yl]amino}-1H-pyrazole-4-carboxamide]	0.01 to 1 µM	> 30 µM
> 30 µM	> 30 µM	C[C@H](Oc1cc(-c2n[nH]c(Nc3cc(C4CCOCC4)on3)c2C(N)=O)ccc1NS(=O)(=O)C(F)F)c1ccc(F)cc1 [Compound 303, (S)-3-(4-((difluoromethyl)sulfonamido)-3-(1-(4-fluorophenyl)ethoxy)phenyl)-5-((5-(tetrahydro-2H-pyran-4-yl)isoxazol-3-yl)amino)-1H-pyrazole-4-carboxamide]	0.01 to 1 µM	> 30 µM
> 30 µM	> 30 µM	NC(=O)c1c(-c2ccc(NS(=O)(=O)C3CC3)c(OCc3ccc(F)cc3)c2)n[nH]c1Nc1cnccn1 [Compound 169, 3-(4-(cyclopropanesulfonamido)-3-((4-fluorobenzyl)oxy)phenyl)-5-(pyrazin-2-ylamino)-1H-pyrazole-4-carboxamide]	0.01 to 1 µM	> 30 µM
> 30 µM	> 30 µM	NC(=O)c1c(-c2ccc(NS(=O)(=O)CC(F)(F)F)c(OC(c3ccc(F)cc3)C3CCC3)c2)n[nH]c1Nc1cnccn1 (centres unmarked) [Compound 266, 3-{3-[cyclobutyl(4-fluorophenyl)methoxy]-4-(2,2,2-trifluoroethanesulfonamido)phenyl}-5-[(pyrazin-2-yl)amino]-1H-pyrazole-4-carboxamide]	1 to 30 µM	> 30 µM
